# Source: PubChem BioAssay AID686970 (National Center for Advancing Translational Sciences (NCATS), 2013)
# The campaign covered roughly 360,000 compounds. About 6,000 (1.7%) were called active. The inconclusive results got no clear call from the source; some entries with a clear call stand among them for comparison. The call rests on the fitted dose curve; in most records, active means well fitted cell-killing curve with a large enough effect; inconclusive means small, poorly fitted or top-dose-only effect, or effect the other way; inactive means flat fitted curve, though single readings scatter. No potency is given beside an inconclusive call; the fits are too rough.
# Assay: qHTS for induction of synthetic lethality in tumor cells producing 2HG: qHTS for the HT-1080-NT fibrosarcoma cell line;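 further: NT is the 2HG producing partner of a matched IDH1 knockdown line; nearly all actives have a fitted effect of over 55% in size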;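 on activity, negative = less viability: 0% = DMSO-treated cells and -100% = media-only wells without cells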
# Conditions: HT-1080-NT fibrosarcoma viability, CellTiter-Glo ATP luminescence, 48 h; activity, negative = less viability: at 46.1 µM (top of the series) unless noted
# In short: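 HT-1080-NT fibrosarcoma cells (2HG-overproducing), 750 cells/well in RPMI with 5% FBS, dosed after 2 h and incubated 48 h at 37C. CellTiter-Glo luminescence normalized to DMSO and no-cell wells; concentration-response curves fitted and classed.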
# Potency means the concentration at half of the fitted maximal effect; tags describe the fitted curve by direction and shape.
Structure (SMILES),Potency,"activity, negative = less viability"
Cc1ccc2nsnc2c1NC(=O)c1ccc(-c2cc(Cl)ccc2Cl)o1,active: 16.4 µM,
Cc1csc(SCC(=O)Nc2cc(S(=O)(=O)N3CCOCC3)ccc2N2CCOCC2)n1,,inconclusive: 31.1%
CN1CCN(/N=C/c2c3ccccc3c(Cl)c3ccccc23)CC1,active: 23.1 µM,
Cn1c(NCc2ccccc2F)nc2cc(-c3ccccc3)sc2c1=O,"inconclusive [cytotoxic, single point]",
CC1(C)CC(=O)c2sc(NC(=O)C(C)(C)C)nc2C1,"inconclusive [rising, single point]",
O=C(Nc1cccnc1Cl)c1cc([N+](=O)[O-])ccc1Cl,"inconclusive [cytotoxic, single point]",
COCc1nnc(NC(=O)c2ccc(OC)cc2OC)s1,"inconclusive [rising, partial curve, poor fit]",
CSc1cccc(NC(=O)CN(Cc2ccc(Cl)cc2)S(C)(=O)=O)c1,"inconclusive [cytotoxic, single point]",
O=C(NCc1ccc(F)cc1)c1cc(-c2ccncc2)nc2ccccc12,,inconclusive: -31% [cytotoxic]
COc1cccc(/C=N/NC(=O)C(=O)NCc2ccco2)c1OC,,inactive: 10.5%
CN(CCOc1ccc(Cl)cc1)C(=O)C1CCN(C(=O)c2ccc(Cl)cc2)CC1,,inactive: -0.817%
Cc1ccc(C(=O)N/N=C\c2cc3c(cc2Br)OCO3)s1,"inconclusive [cytotoxic, single point]",
COc1ccc(Nc2nc(C)cc(C)c2C#N)cc1OC,,inactive: 0.442%
COCCCn1[nH]c2c3c(ccc2c1=O)C(=O)c1ccccc1C3=O,"inconclusive [cytotoxic, single point]",
COc1ccc(CN2CCC(n3nccc3NC(=O)C3CC3)CC2)c(Cl)c1OC,,inactive: -1.98%
CN(C)S(=O)(=O)c1ccc(NC(=O)N2CCN(c3cccc(C(F)(F)F)c3)CC2)cc1,"inconclusive [cytotoxic, partial curve]",
O=S(=O)(Nc1ccc(C(O)(C(F)(F)F)C(F)(F)F)cc1)c1cccc2ccccc12,"inconclusive [cytotoxic, single point]",
CC(C)C[C@H]1CN([C@@H](Cc2ccc(O)cc2)CN2CCC[C@@H]2CN2C(=S)NC[C@@H]2Cc2ccccc2)C(=S)N1CC1CCCCCC1,,inconclusive: -28.1% [cytotoxic]
COc1cnc(-c2ccccn2)nc1Sc1ccccc1Cl,"inconclusive [cytotoxic, single point]",
Cc1cc(C)n(-c2nc3c(c(=O)[nH]c(=O)n3C)n2CC(O)COc2ccc(Cl)cc2Cl)n1 (stereo unspecified),"inconclusive [cytotoxic, single point]",
O=C(Nc1ccc(-c2cnco2)cc1)c1ccccc1,,inactive: 11.1%
CN1C[C@@H]2[C@@H]3C(=O)N(Cc4ccccc4)C(=O)[C@@H]3[C@](Cc3ccccc3)(C1=O)N2C(=O)c1ccc(C(C)(C)C)cc1,"inconclusive [cytotoxic, single point]",
CC(C)CN(CC(C)C)C1=N/C(=C\c2ccco2)C(=O)N1c1ccccc1,"inconclusive [cytotoxic, single point]",
Cc1cc(NC(=O)NC(=O)c2ccccc2NC(=O)C(C)N)ccc1Oc1ncc(Br)cn1 (stereo unspecified),"inconclusive [cytotoxic, full curve]",

Structure (SMILES),Potency,"activity, negative = less viability"
O=C(Oc1c(CN2CCOCC2)cc(Cl)c2cccnc12)c1ccccc1Br,"inconclusive [cytotoxic, partial curve]",
Cc1cccc(-c2noc(CCC(=O)NCc3ccco3)n2)c1,"inconclusive [cytotoxic, single point]",
O=C1NC[C@H](CCCCN2C[C@H](Cc3ccccc3)N(CC3CCCCC3)C(=O)C2=O)N(CC2CCCCC2)C1=O,,inactive: 13.1%
O=C(CCl)NC(Cc1c[nH]c2ccc(OCc3ccccc3)cc12)C(=O)O (stereo unspecified),,inactive: 12.2%
CCCCc1nc(SCC(=O)Nc2ccc(S(N)(=O)=O)cc2)n[nH]1,,inconclusive: 33.2%
O=C(CCCN1C(=O)/C(=C/c2ccccc2)SC1=S)Nc1ccccc1O,"inconclusive [cytotoxic, partial curve, poor fit]",
COc1ccc(N(C)S(=O)(=O)c2cccc(C(=O)OCC(=O)N(C)c3ccccc3)c2)cc1,,inactive: 1.2%
O=C(CNc1cccc(Br)c1)Nc1ccc(S(=O)(=O)N2CCCCC2)cc1,"inconclusive [cytotoxic, partial curve]",
Cc1ccccc1C(=O)Nc1nnc(CC(=O)N/N=C/c2ccncc2)s1,,inactive: 12.2%
CC(C)Cc1ccc(-c2cc3nc(NCc4cccc(Cl)c4)ccn3n2)cc1,active: 23.1 µM,
COc1ccc(/C=N/NC(=O)c2ccccc2Cl)cc1CSc1nc2ccccc2s1,active: 4.47 µM,
CCOc1ccc2nc(SCC3CC3(Cl)Cl)[nH]c2c1 (stereo unspecified),"inconclusive [cytotoxic, partial curve]",
O=C1c2cccc3cccc(c23)C(=O)N1CCO,,inactive: 0.374%
CCCc1nc2ccc(Br)cn2c1Cc1cccc(Cl)c1,"inconclusive [cytotoxic, single point]",
CCN(CC(=O)Nc1ccc(NC(C)=O)cc1)C(=O)c1ccc(COc2ccc(C(C)(C)C)cc2)cc1,"inconclusive [cytotoxic, partial curve]",
Cc1ccc(C(=O)NC2CC(C)(C)NC(C)(C)C2)cc1,,inactive: 3.06%
O=C1N[C@@H](c2ccccc2)COC(=O)[C@H](Cc2ccc(F)cc2)C/C=C\C[C@@H]1CC(=O)N(CCO)Cc1ccccc1,"inconclusive [cytotoxic, single point]",
COc1cccc(CN2CCNC(=O)C2CC(=O)N(C)CC2CCOCC2)c1OC (stereo unspecified),,inactive: 14.3%
CCOc1ccc(C(=O)Nc2c(C(N)=O)oc3ccccc23)cc1,"inconclusive [cytotoxic, partial curve]",
Cc1cc2c(cc1C)CSC(c1c(O)ccc3ccccc13)SC2,active: 23.1 µM,
CC1CC(C)(C)CC2(C1)NC(=S)N(c1ccccc1)N2 (stereo unspecified),"inconclusive [cytotoxic, partial curve]",
O=C(NCCCN1CCOCC1)c1ccc(-n2nc(C(F)(F)F)cc2-c2cccs2)cc1,"inconclusive [cytotoxic, partial curve]",
COc1cccc(NC(=O)[C@H](NC(=O)[C@@H]2Cc3ccccc3CN2)c2ccccc2)c1,"inconclusive [cytotoxic, partial curve]",
Cc1ccc(S(=O)(=O)NCCC(=O)Nc2nnc(C3CC3)s2)cc1C,,inactive: 3.83%

Structure (SMILES),Potency,"activity, negative = less viability"
COc1cccc(N2CCN(CC(=O)C34CC5CC(CC(C5)C3)C4)CC2)c1,,inactive: 0.194%
COC(=O)C(=O)C/C(=N/Nc1ncnc2ccccc12)c1ccc(Cl)cc1,"inconclusive [cytotoxic, partial curve]",
COc1ccc(-c2[nH]c(-c3ccccc3)nc2SCC(=O)NC2CCCC2)cc1,,inactive: -0.599%
CCOc1ccccc1C1NC(=O)NC(C)=C1C(=O)OC1CCCCC1 (stereo unspecified),,inactive: -6.26%
COc1c(CC=C(C)C)cc(C2CC(=O)c3c(O)cc(O)cc3O2)cc1CC=C(C)C (stereo unspecified),"inconclusive [cytotoxic, single point]",
COc1cc2cnc(-c3cccnc3)cc2cc1OC,,inactive: 0.3%
O=C(N/N=C/c1ccc(O)c([N+](=O)[O-])c1)c1ccncc1,,inactive: -6.2%
COc1ccc(S(=O)(=O)Nc2cc(C(=O)NC3CCCCCC3)ccc2N2CCOCC2)cc1,"inconclusive [cytotoxic, partial curve]",
CCc1nc2ccc(C(=O)NCCCn3ccnc3)cn2c1N(C)Cc1cc2ccccc2s1,active: 20.6 µM,
COc1ccc2nc(Nc3nc(C)c(C(C)=O)s3)sc2c1,,inactive: -21.8%
CCOC(=O)c1sc2nc(C)nc(NCc3ccccc3OC)c2c1C,,inactive: 2.46%
CN(c1cccc(Cl)c1)S(=O)(=O)c1cccc(C(=O)NC2=NCCS2)c1,"inconclusive [cytotoxic, single point]",
N/C(=N\c1nc2c(c(=O)[nH]1)CCC2)Nc1cccc(Cl)c1,"inconclusive [cytotoxic, single point]",
C/C(CC(=O)Nc1cccc(C(F)(F)F)c1)=N\NC(=O)C1CCCCC1,"inconclusive [cytotoxic, single point]",
O=C(/C=C/c1ccccc1)NC(=S)Nc1ccc(CN2CCOCC2)cc1,"inconclusive [cytotoxic, single point]",
CCn1c(Cl)c(C=O)s/c1=N\S(=O)(=O)c1ccccc1,active: 13 µM,
COc1cc(OC)cc(C(=O)N[C@H](C(=O)Nc2nc3ccccc3[nH]2)C(C)C)c1,active: 1.16 µM,
COC(=O)[C@@]12C[C@@H](CC(=O)NCc3cccc4ccccc34)C(=O)N(Cc3ccc4c(c3)OCO4)C1=CCC(C)(C)C2,"inconclusive [cytotoxic, partial curve]",
O=S1(=O)c2ccc(Br)cc2N2CCC[C@@H]2CN1Cc1ccccc1,"inconclusive [cytotoxic, partial curve]",
O=C(O)C1CC=CCC1C(=O)NNc1ccccc1 (stereo unspecified),"inconclusive [cytotoxic, single point]",
O=C(CCNC(=O)c1ccc(Cl)cc1)Nc1ccccc1Cl,,inconclusive: 21.4%
CC1(C)Cc2c(sc(NC(=O)COc3cccc4ccccc34)c2C#N)C(C)(C)N1,active: 9.2 µM,
O=C(Nc1ccc(F)cc1)C(c1ccccc1OC(F)(F)F)N1CCN(c2cccc(C(F)(F)F)n2)CC1 (stereo unspecified),,inactive: -14.4%
